The source gives no read counts; variants with many changes may rest on few reads.
B1: LINE1-mini (parent)
chain: GGCAGAGCUCAACACAGCGUGGCAAAGUGGCUGUGGCUAGACUGCC

Variants of: B1
Assay: self-cleavage, relative activity (ratio to wild type); higher = more cleavage; in vitro, sequencing; the parent is a self-cleaving ribozyme

Variant	self-cleavage
GUCAGAGCUCAACACAGCGUGGCAAAGUGCCUGUGGCUAGAUUGCC [G2U G30C C42U]	0.05
GUCAGAGCUCAACACAGCUUGGCAAAGUGGCUGUGGUUAGACUGCC [G2U G19U C37U]	0.03
GUCAGAGCUCAACACAGCGUCGCAAAGUGACUGUGGCUAGACUGCC [G2U G21C G30A]	0.08
GUCAGAACUCAACACAGCGUGGCAGUGUGGCUUUGGCGAGACUGCC [G2U G7A A25G A26U G33U U38G]	0.01
GUCAGACCUCAACACAGCGUGGCAAAGUGGCUGUUGCUAGACUGCC [G2U G7C G35U]	0.07
GUCAGAGCUCAACACAGCGUAGCAAAGUGGCUGUGGCUAGACAGCC [G2U G21A U43A]	0.06
GUCAGAACUCAACACAGCGUGCCAAAGUGGCUGUGGAUAGACAGCC [G2U G7A G22C C37A U43A]	0.02
GUCAGAGCUCAACACAGCCUGGGUAAGUGGCUCUGGCUAGACUGGC [G2U G19C C23G A24U G33C C45G]	0.01
GUCAGAGCUCAACACAGCGUUGCAAAUUGGCUGUCGCUAUACUGCC [G2U G21U G27U G35C G40U]	0.01
GUCAGAGCUCAACACAGCUUGGCAAAGUGGCUCUGGCUAAACUGCC [G2U G19U G33C G40A]	0.02
GUCAGAGCUCAACACAGCGUGGCAAAGUCGCUGUGGCUAGUCUGCC [G2U G29C A41U]	0.03
GUCAGAGCUCAACACAGCAUGGCAAACUGGCUGUGGCAAGACUGCC [G2U G19A G27C U38A]	0.04
GUCAGAGCUCAACACAGCGUCGAAAAGUGUCUGUGGCUAGACUGCC [G2U G21C C23A G30U]	0.04
GUCAUAGGUCAACACAGCGUGGCAAAUUGGCUUUGGCUAGACUGCC [G2U G5U C8G G27U G33U]	0.01
GUCAGAGCUCAACACAGCGUGGCAAAAUGGCUGUGGAGAGCCUGCC [G2U G27A C37A U38G A41C]	0.01
GUCAGAUCUCAACACAGCGUGGCACAGUGGCUGUGGCUAGACUGCC [G2U G7U A25C]	0.02
GUCAGAACUCAACAGAGCGUGGAAAAGUGGCUGUGGCUAGAGUCCC [G2U G7A C15G C23A C42G G44C]	0.02
GUCAUAGCUCAACACAGCGGGGCAAAGUGGUUGUGGCUAGACUGCC [G2U G5U U20G C31U]	0
GUCAGAGCUCAACACACCGUGGCAAAGUGGCUGUUGCUAGACUGCC [G2U G17C G35U]	0.06

Variant	self-cleavage
GUCAUAGCUCAACACAGCGCGGAAAAGAGGCUGUGGCUACACUGCC [G2U G5U U20C C23A U28A G40C]	0.04
GUCAGAGCUCAACACAGCGUGGCAAAGUAGCUAUGUCUAGGCUGCC [G2U G29A G33A G36U A41G]	0.01
GUCAGAGCUCAACACAGCGUGUCAAAAUGGCUGUGGUUAGAAUACC [G2U G22U G27A C37U C42A G44A]	0.35
GUCAGAGCUCAACACAGCCUGGCGAAGUGGCUGUGGCUAGACUGCC [G2U G19C A24G]	0.05
GUCAGAGCUCAACACAGCGUUGCAAAGUGACUGUGGCUAAACUGCC [G2U G21U G30A G40A]	0.04
GUCAGAGCUCAACACAUCGUCGCAAUGUGGCUGUGGCUAGACUGCC [G2U G17U G21C A26U]	0.01
GUCAGAACUCAACACGGCGUGGCAAAGUGGCGGUGGCUAGACUGCC [G2U G7A A16G U32G]	0.05
GUCAUAGCCCAACACGGCGUGGCAAAGUGGCUCUGGCUAGACUGCC [G2U G5U U9C A16G G33C]	0.01
GUCAGAGCUCAACACAGCGUGGCAAAAUGGCUGUUGCUAGACUGCC [G2U G27A G35U]	0.06
GUCAGAUCUCAACACAGCCUGGCAAAGUGGCUGUGCCUAGACUGGC [G2U G7U G19C G36C C45G]	0.02
GUCAGAACUCAACACAGCGUUGCUAAGUGGCUGUGGCUAGACUGCC [G2U G7A G21U A24U]	0.08
GUCAGAGCUCAACACAGCGUGGCAAAGUUGCUGUUGCUAGACUGCC [G2U G29U G35U]	0.02
GUCAGAACUCAACACACCGUGGCAGAGUGGCUGUGGAUAGACUGCC [G2U G7A G17C A25G C37A]	0.03
GUCAGAGCUCAACACAGCUUGGCAAAGUGGCUGUGGCUGGACUGCC [G2U G19U A39G]	0.01
GUCAGAUCUCAACACAGCGUGACAAACUGGCUGUGGCUAGACUGCC [G2U G7U G22A G27C]	0.03
GUCAGAGCUCAACACAGCGUGGCAAAGUGGCUAUGGCGAGACUGCC [G2U G33A U38G]	0
GUCAGACCUCAACACAGCGUGGCAAAGUGGCUGUGACUAGACUGCC [G2U G7C G36A]	0.26
GUCAGAGCUCAACACAACGUGGCGAAGUGGCUGUGGCUAGACUGCC [G2U G17A A24G]	0.03
GUCAGAGCUCAACACAGCGUGUCAAGGUGGCUGUGACUAGACUGCC [G2U G22U A26G G36A]	0.02

Variant	self-cleavage
GUCAGAUCUCAACACAGUGUGGCAAAGUGGCUGUGGCUAGACUGCC [G2U G7U C18U]	0.04
GUCAGAGCUCAACACAGCAUGGCAAGGUGGCUGUGGCUAGACUGCC [G2U G19A A26G]	0.04
GUCAGAGCUCAACACAGCGUGACACAGUGGCUGUGGCUAGACUGCC [G2U G22A A25C]	0.04
GUCAGAGCUCAACACAGCGUUGCAAAGUGGCUGUCGCUAAACUGCC [G2U G21U G35C G40A]	0.02
GUCAGAAGUCAACACAGCGUGGCAACGUGGCUGUGCCUAGACUGCC [G2U G7A C8G A26C G36C]	0.15
GUCAUAGCCCAACACAGCGUGGCAAACUGGCUGUGGUUAGACUGCC [G2U G5U U9C G27C C37U]	0.01
GUCAUAGCUUAACACAGCAUGGCAAAGUGGCUGUGGCUAGACUGCC [G2U G5U C10U G19A]	0
GUCAGAGCUCAACACAGCGUGGCAAAAUGGCUGUGGCUAGAUUGCC [G2U G27A C42U]	0.04
GUCAGAGCUCAACACAGCGUGUCAAAUUGGUUGUGGCUCGACUGCC [G2U G22U G27U C31U A39C]	0.01
GUCAUAGCUAAGCACAGCGUGGCGAAGUGGCUUUGGCUAGACUGCC [G2U G5U C10A A12G A24G G33U]	0.01
GUCAGAGCUCAACACAGCCUGGCAAAGUGGCUUUGGCUAGACUGCU [G2U G19C G33U C46U]	0.02
GUCAGAGCUCAACACAGCAUGGCAAAGAGACUGUGGCUAGACUUCU [G2U G19A U28A G30A G44U C46U]	0.04
GUCAGAACUCAACACAGCGUGCCAAAGUGGCUGUGGCUAGAAUGCC [G2U G7A G22C C42A]	0.01
GUCAGAUCUCAACACAUCGUGGCAAAGUGGCUGUUUCUAGACUGCC [G2U G7U G17U G35U G36U]	0.04
GUCAGAGCUCAACACAGCGUGUCAAAGUGGCUGUUGCUCGACUGCC [G2U G22U G35U A39C]	0.1
GUCAGAGCUCAACACAGCUUGGCAAACUGGCUGUGGCUAGACUGUA [G2U G19U G27C C45U C46A]	0.04
GUCAGAGCUCAACACAGCGUGCCAAAGUAGCUGUCGAUAGACUGUC [G2U G22C G29A G35C C37A C45U]	0.1
GUCAGACUUCAACACAGCGUGGCAAAGUGGCUGUGGCUAGACUGUC [G2U G7C C8U C45U]	0.08

From the RNAGym collection of RNA variant scans (doi:10.7554/elife.90254)
